51 molecules from publication PMC6919601, “Identification of Plasmodium dipeptidyl aminopeptidase allosteric inhibitors by high throughput screening” (PLoS ONE, 2019) can be followed below.

Each structure is given as a SMILES string. Screen size: about 110,000 compounds; about 230 (0.21%) showed an effect of 50% or more. The list shows a part of the results.
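Note: 30 min substrate incubation versus DMSO and 10 µM JCP410 controls.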

For the experiment, the target named is DPAP1 (Plasmodium falciparum, UniProt Q8IIJ9). Briefly: primary screen, percent inhibition; read by cleavage of a fluorogenic dipeptide substrate; higher = more effect of the substance. Further details: species or system P. falciparum D10 trophozoite lysates; single well.
Sequence of DPAP1 (Q8IIJ9 whole entry, looked up): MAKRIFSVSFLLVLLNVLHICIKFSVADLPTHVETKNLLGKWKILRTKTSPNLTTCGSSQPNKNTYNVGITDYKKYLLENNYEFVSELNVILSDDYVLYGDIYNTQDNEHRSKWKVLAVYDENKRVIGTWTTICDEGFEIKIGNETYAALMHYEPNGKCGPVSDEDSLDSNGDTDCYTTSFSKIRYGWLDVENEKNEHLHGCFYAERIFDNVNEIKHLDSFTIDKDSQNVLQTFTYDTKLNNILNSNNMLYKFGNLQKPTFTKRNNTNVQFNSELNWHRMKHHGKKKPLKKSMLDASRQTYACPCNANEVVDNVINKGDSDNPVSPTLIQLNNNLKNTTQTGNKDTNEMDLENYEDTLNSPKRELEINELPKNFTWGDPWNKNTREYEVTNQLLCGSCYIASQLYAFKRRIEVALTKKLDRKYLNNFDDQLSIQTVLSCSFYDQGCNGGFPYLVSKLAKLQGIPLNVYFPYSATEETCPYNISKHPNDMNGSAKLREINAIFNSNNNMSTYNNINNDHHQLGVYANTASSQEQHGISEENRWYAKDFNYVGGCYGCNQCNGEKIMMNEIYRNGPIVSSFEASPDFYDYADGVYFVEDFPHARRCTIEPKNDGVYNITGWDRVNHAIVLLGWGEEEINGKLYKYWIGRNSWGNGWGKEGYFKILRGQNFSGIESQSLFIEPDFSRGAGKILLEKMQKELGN
Regarding `CCOc1ccc(CCNC(=O)c2ccc(CN3CC(=O)N4CCCCC4C3=O)cc2)cc1OCC` (stereo not drawn), the “% Inhibition @ 10 uM” value amounted to 6.08%. For `CCCN(CCC)C(=O)C1C2CCC(O2)C1C(=O)O` (stereo not drawn) the value was -4.6%; for `CCn1cc(Cl)c(C(=O)Nc2nc3ccccc3n2CCN2CCCCC2)n1`, 1.35%. For `CCCCNS(=O)(=O)c1cc(Br)cnc1N` the value was 2.32%; for `CCCC1=C(C(=O)OCC)C(c2ccsc2)C(C#N)=C(N)O1` (stereo not drawn), -0.261%. `CCNC(=S)N1CCN=C1Nc1nc(C)cc(C)n1`: the “% Inhibition @ 10 uM” value amounted to 0.189%. For `CCn1cc(C(=O)OC)c(=O)c2ccc(C)nc21` the value was -8.24%; for `O=C(NC1CCCCC1)N1CCC(Cc2ccccc2)CC1`, 5.81%; for `C=CCNC(=O)c1cc2c(=O)n3cccc(C)c3nc2n(CC=C)c1=N`, -7.08%.

For `CCS(=O)(=O)c1nc2ccccc2n1Cc1ccc(C(C)(C)C)cc1`, the “% Inhibition @ 10 uM” value stood at 1.72%. As for `COc1ccc(C(=O)NCc2nnc(SCC(=O)NCC3CCCO3)o2)cc1` (stereo not drawn), the “% Inhibition @ 10 uM” value is on record as 8.26%. Consider `CC/N=C1\SC(CC(=O)Nc2ccccc2OC(F)F)C(=O)N1CC` (stereo not drawn), for which the “% Inhibition @ 10 uM” value was -2.85%. The result for `CN(Cc1ccco1)S(=O)(=O)c1csc(C(N)=O)c1` reads 2.75%; that for `CN1CCN(c2ccc(NC(=O)C3CCCCC3C(=O)O)cc2)CC1` (stereo not drawn), -4.63%.

Regarding `Cc1ccc(C(=O)NCCCn2ccnc2)cn1`, the “% Inhibition @ 10 uM” value was -5.85%. The result for `N#CC1=C(N)Oc2c(oc(CO)cc2=O)C1c1ccccc1Cl` (stereo not drawn) reads 0.746%; that for `CCc1ccc(N2CC(C(=O)NCc3ccccc3)CC2=O)cc1` (stereo not drawn), 5.04%.

With `Cc1cc(C)nc(NS(=O)(=O)c2ccc(NC(=S)NC(=O)c3ccco3)cc2)n1`, the “% Inhibition @ 10 uM” value was found to be 1.7%. The result for `O=S(=O)(Nc1ccccc1O)c1ccccc1` reads -3.72%; that for `CCn1c(C)c(C)c2cc(C(=O)NCc3cccnc3)ccc21`, -2.83%. For `Cc1ccc(CNC(=O)CSCc2cccc(F)c2)cc1` the value was -0.406%. For `c1ccc2c(c1)ncn2Cc1nnc2sc(-c3ccc4c(c3)OCO4)nn12` the value was 24.8%; for `CCOc1cc(C2CC(=O)Nc3nc(SC)nc(O)c32)ccc1O` (stereo not drawn), 3.84%; for `CC1(C)CC(=O)C2=C(C1)OC1=C(C(=O)CC(C)(C)C1)C2c1cccc(OCC(=O)N2CCCCC2)c1`, 2.69%. With `Cc1ccccc1OCC(=O)Nc1ccc(S(=O)(=O)NC(C)(C)C)cc1`, the “% Inhibition @ 10 uM” value is listed as -0.473%. The result for `Cc1cc(C)n(-c2cc(-c3ccccc3)nc(N)n2)n1` reads 1.04%.

Take `CC(O)CSc1nc2c(c(=O)n(C)c(=O)n2C)n1CCCc1ccccc1` (stereo not drawn): the “% Inhibition @ 10 uM” value is 6.7%. On to `Cc1cc2nc(NCCO)n(CCOc3ccccc3)c2cc1C`, for which the “% Inhibition @ 10 uM” value is -8.72%. For `O=[N+]([O-])c1cc(Br)cc2c1[nH]c1ccc(Br)cc12` the value was -4.87%. For `COCCCNC(=O)c1ccc(CS(=O)c2cccc(Cl)c2)o1` (stereo not drawn) the value was 5.66%. The result for `Cc1cc(Cl)ccc1OCC(=O)NCc1ccccn1` reads 0.389%; that for `Cc1nc(Cl)sc1C(=O)NC(C)c1ccc(Cl)cc1` (stereo not drawn), -3.71%. As to `CC(C)(C)c1[nH]nc2c1C(c1ccc3ccccc3c1)C(C#N)=C(N)O2` (stereo not drawn), the “% Inhibition @ 10 uM” value is on record as -0.661%. For `O=C(O)/C=C/C(=O)Nc1cccc(F)c1` the value was 4.22%; for `Cc1nc2c(-c3ccc(F)cc3)c(C)nn2c(C)c1CCC(=O)NC1CCN(Cc2ccccc2)CC1`, -0.465%; for `O=C(O)C(Cc1ccccc1)NS(=O)(=O)c1ccc2nc(O)c(O)nc2c1` (stereo not drawn), 0.0539%. For `O=C(CCN1C(=O)c2cccc3cccc(c23)C1=O)NC1CCCCC1` the value was 44.1%. For `COc1cc(NC(=O)c2ccc([N+](=O)[O-])cc2)c(OC)cc1NC(C)=O` the value was 2.54%; for `C=CCn1c(C(C)NC(=O)CC)nc2ccccc21` (stereo not drawn), 3.49%; for `CCOc1ccc(-c2cc(CCCC(=O)NCCC(C)C)no2)cc1`, -3.45%. As to `COc1cccc(CNCCO)c1OCc1ccc(F)cc1`, the “% Inhibition @ 10 uM” value is recorded as -4.97%. The result for `COc1cccc(Cn2c(C)c(CNCCC3=CCCCC3)c(C(=O)O)c2C)c1` reads 14.1%.

Turning to `COc1cc2nc(NCCc3ccc(Cl)cc3)n3nc(-c4cccnc4)nc3c2cc1OC`, the “% Inhibition @ 10 uM” value was -2.42%.

On to `ONC1=NC(/C=C/c2ccccc2)Nc2ccccc21` (stereo not drawn), for which the “% Inhibition @ 10 uM” value was 2.4%. The result for `CCCN(CCO)Cc1c(Cl)cccc1Cl` reads 4.28%. Take `CCC1CCCCN1CCCNC(=O)c1cc2c(s1)CSC2` (stereo not drawn): the “% Inhibition @ 10 uM” value is listed as -3.1%. In the case of `Nc1nonc1-c1noc(-c2cc(Br)ccc2OCc2ccccc2Cl)n1`, the “% Inhibition @ 10 uM” value is recorded as -2.1%. Turning to `Nc1nc(-c2ccc([N+](=O)[O-])cc2)c(C(=O)Nc2ccccc2Cl)s1`, the “% Inhibition @ 10 uM” value was 4.42%. Take `Cc1ccc(C(=O)N/C(=C\c2ccco2)C(=O)NCC2CCCO2)cc1C` (stereo not drawn): the “% Inhibition @ 10 uM” value worked out at 5.67%. The result for `CCn1c(C(=O)O)c(CNCc2ccc3c(c2)OCO3)c2ccc(C)cc21` reads -9.17%; that for `CCc1ccccc1NC(=O)C1CCN(S(C)(=O)=O)CC1`, -1.21%.
